Structures are written as SMILES. The list shows a part of the results. The main result of the screen is listed elsewhere. These columns were measured beside it and carry no call. The list favours compounds with an active or inconclusive main result. Potencies come from curve fits of mixed quality, noted in brackets.
Tags give direction and shape of the fitted curve.

A short description of the assay: Natriuretic polypeptide receptor (hNpr1) antagonism - Confirmation. Note: nearly all actives have a fitted effect of over 70% in size. As to conditions: HEK293 hNpr1 cGMP GloSensor luminescence, ANP-stimulated; measured here: HEK-hNpr1 cytotoxicity, CellTiter-Glo. The gist of the method: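 HEK293 cells expressing hNpr1 and the pGS-40F GloSensor cGMP sensor, loaded with 2% GloSensor reagent for 2 h, then treated 30 min with compound at room temperature. Luciferase luminescence read before and 20 min after 0.1 nM hNppA stimulation.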
Turning to `CCCc1nc(NCc2nc(Cc3cccs3)no2)c2cnn(C)c2n1`, the CC50 is 24.3 µM [falling, partial curve]. As for `O=C(CCC1CCCC1)N1CCC(c2noc(COc3ccc(F)cc3)n2)C1` (stereo unspecified), the figure is 24.3 µM [falling, partial curve]; as for `O=C(c1cc(F)ccc1Cl)N1CCN(c2cc(-c3ccc(F)cc3)[nH]n2)CC1`, 24.3 µM [falling, partial curve]. The same measure for `N#Cc1cccc(CN2CCOC[C@H]2c2ncc(-c3ccc(Cl)s3)[nH]2)c1`: 35.3 µM [falling, partial curve]; for `COc1ccc(CN(C)C(=O)c2ccc3oc(C)cc3c2)c2cccnc12`: 12.2 µM [falling, partial curve]; for `COc1ccc(C(=O)Nc2ccc(-c3noc([C@@H]4CCCN4Cc4ccc(F)cc4)n3)cn2)cc1`: 12.2 µM [falling, partial curve]. As for `Cc1ncnc(N2CCC(CO)(Cc3ccccc3C(F)(F)F)CC2)c1C`, the figure is 21.7 µM [falling, partial curve]; as for `O=C(CCCc1ccccc1)N1CCC2(CC1)CC(Cc1nc(-c3cccnc3)no1)CCO2` (stereo unspecified), 21.7 µM [falling, partial curve]. For `O=C(Nc1ccc(F)cc1)c1ccc2c(c1)OCCN(c1ccccc1)C2`, the CC50 was 49.8 µM [falling, single point]. The same measure for `Cc1cc2c(N3CCC(NCc4noc(C5CCC5)n4)CC3)ncnc2s1`: 3.43 µM [falling, full curve]; for `Cc1ccccc1-c1cnc2[nH]cc(CC(=O)Nc3cccnc3)c2c1`: 31.4 µM [falling, partial curve]; for `CC1=C(C(=O)OC(C)C)C(c2ccc(C)cc2)CC(=O)N1Cc1cccc(C#N)c1` (stereo unspecified): 21.7 µM [falling, partial curve]. As for `Cc1cc(F)ccc1NC(=O)c1cc2n(n1)CC(c1ccc(Cl)cc1)OC2` (stereo unspecified), the figure is 34.3 µM [falling, single point]. As for `O=C(N[C@H]1CO[C@H]2[C@@H]1OC[C@@H]2n1nnnc1Oc1ccc(-n2ccnc2)cc1)c1ccc(C(F)(F)F)cc1`, the figure is 21.7 µM [falling, partial curve]. Take `Cc1c[nH]c(CN2CCCC(CCc3ccc(F)cc3F)C2)c(C)c1=O` (stereo unspecified): the CC50 was 3.85 µM [falling, partial curve]. Regarding `O=C1N(Cc2ccc(F)cc2)C[C@H]2CN(Cc3ccc(C(F)(F)F)cc3)CCN12`, the CC50 is 22.2 µM [falling, partial curve]. The same measure for `COc1ccc(C(=O)N2CCC3(CC2)CC(=O)Nc2ccccc2O3)cc1`: 19.3 µM [falling, partial curve]; for `CC1=NS(=O)(=O)N(C)C=C1C(=O)OCc1nc(-c2ccccc2)oc1C`: 15.3 µM [falling, partial curve]; for `O=C(c1cc(F)ccc1Cl)N1CCC(Cc2nc(-c3ccc(F)cc3)no2)CC1`: 12.2 µM [falling, partial curve]. As for `CC(=O)N1CCc2cc(S(=O)(=O)NCCCC(=O)N3CCC(CCOc4ccccc4)C3)ccc21` (stereo unspecified), the figure is 9.68 µM [falling, partial curve]; as for `Cc1ccc(C(=O)N2CCN(c3cc(-c4ccc(Cl)cc4)[nH]n3)CC2)cc1F`, 19.3 µM [falling, partial curve].

For the molecule `Cn1ccc(NC(=O)[C@@H]2C[C@@H](c3ccc(F)cc3)N(Cc3ccccc3)C2)n1`, the CC50 is 35.3 µM [falling, partial curve, poor fit].

Consider `Cc1ccc(-n2ncc3c2CCCC3NC(=O)c2cc(C(C)C)no2)cc1C` (stereo unspecified), for which the CC50 is 19.3 µM [falling, partial curve]. As for `Cc1ccc(F)cc1CN1CCOc2cc([S+](=O)([O-])N(C)C)ccc2C1`, the cytotoxic concentration (CC50) is 31.4 µM [falling, partial curve].

Turning to `COc1ccc(C2=NOC3(CCN([S+](=O)([O-])c4cccc(OC)c4)C3)C2)cc1` (stereo unspecified), the CC50 was 24.3 µM [falling, partial curve]. In the case of `O=C(c1ccccn1)N1CC(Oc2ccc(-c3noc(C4CC4)n3)cc2)C1`, the cytotoxic concentration (CC50) was 21.7 µM [falling, partial curve]. The same measure for `Cc1ccc(C)c(C(=O)N2CCC3(CC2)N=C(c2ccc(Cl)cc2)NO3)c1`: 24.3 µM [falling, partial curve, poor fit]. As for `CN(C(=O)c1cnc2n[nH]c(-c3ccccc3)c2n1)c1ccccc1`, the figure is 31.4 µM [falling, partial curve]; as for `O=C(COc1ccccc1)N1CCN(C(=O)c2nnn3c2COC(c2ccc(Cl)cc2)C3)CC1` (stereo unspecified), 21.7 µM [falling, partial curve]. Consider `COc1cccc(-c2noc(CC3CCN(C(=O)COc4cccc(C)c4)CC3)n2)c1`, for which the 50% cytotoxic concentration (CC50) was 43.2 µM [falling, single point]. In the case of `O=C(Nc1ccc(Cl)cc1)c1nc2c(o1)CCN(CC1CC1)CC2`, the CC50 was 62.7 µM [falling, single point]. As to `OCC1CN(c2ccncn2)CC12CCN(Cc1cc(F)c(F)c(F)c1)CC2` (stereo unspecified), the CC50 is 24.3 µM [falling, single point]. The same measure for `CCOc1ccccc1C(=O)N1CCc2[nH]nc(-c3ccc(F)c(F)c3)c2C1`: 34.3 µM [falling, single point]; for `CCOC(=O)c1ccc(NC(=O)Cn2c(N3CCC(C)CC3)nc(C)cc2=O)cc1`: 21.7 µM [falling, partial curve]; for `CCC(O)C(=O)N1CCc2onc(-c3ccc(-c4ccccc4)cc3)c2C1` (stereo unspecified): 21.7 µM [falling, partial curve]. The same measure for `O=C(c1ccc(Cl)cc1Cl)N1CCN(c2cc(-c3cccs3)[nH]n2)CC1`: 21.7 µM [falling, partial curve]; for `Cc1cc(CNC(=O)c2cc(C(C)C)nn2C)c2[nH]c(C)c(C)c2c1`: 6.11 µM [falling, partial curve]; for `CN(Cc1cccc2cnccc12)C(=O)c1cc(COc2ccc(F)cc2F)on1`: 21.7 µM [falling, partial curve].

Regarding `Cc1nc(N2CCC(C(=O)NC3CCCCCCC3)CC2)cc(C(F)(F)F)n1`, the CC50 is 10.9 µM [falling, partial curve]. The same measure for `CCN(Cc1ccccc1)C(=O)CCC1CCN(S(=O)(=O)c2ccccc2)CC1`: 10.9 µM [falling, partial curve]. As for `O=C(N[C@H]1CO[C@H]2[C@@H]1OC[C@@H]2n1nnnc1Oc1ccc2c(c1)OCO2)c1ccc(C(F)(F)F)cc1`, the figure is 12.2 µM [falling, partial curve]; as for `CN(Cc1ccncc1)Cc1ccc(-c2ccccc2)cc1`, 28 µM [falling, partial curve]. The same measure for `O=C(c1ccc2[nH]ccc2c1)N1CCCN(c2cc(-c3ccc(Br)cc3)[nH]n2)CC1`: 19.3 µM [falling, partial curve].

Take `Cc1nc2cccnc2n1CC1CCCN(S(=O)(=O)c2ccc(CC(C)C)cc2)C1` (stereo unspecified): the CC50 is 21.7 µM [falling, partial curve]. `COc1ccc(C(=O)Nc2ccc(-c3noc([C@@H]4CCCN4Cc4ccc(C(F)(F)F)cc4)n3)cn2)cc1`: the CC50 was 10.9 µM [falling, partial curve]. Regarding `Cc1cc(C(=O)N2CCC(F)(c3nc(-c4ccncc4)no3)CC2)n(C)n1`, the CC50 is 24.3 µM [falling, partial curve]. As to `Cc1ccc(CN2CCc3nc(C(=O)Nc4ccc(Cl)cc4)oc3CC2)cc1`, the CC50 was 28 µM [falling, partial curve]. As for `COc1ccc(-c2noc(CC3CCN(C(=O)COc4cccc(C)c4)CC3)n2)cc1`, the figure is 21.7 µM [falling, partial curve, poor fit]. The same measure for `COC(=O)c1cccc(NC(=S)N[C@@H]2C=C[C@@H](c3c(C)nn(-c4ccccc4[N+](=O)[O-])c3C)C2)c1`: 24.3 µM [falling, single point]; for `O=C(CCC1CCN(c2cc(NC3CC3)ncn2)CC1)N1CCN(c2ccccc2F)CC1`: 21.7 µM [falling, partial curve]; for `CN(C)c1cccc(C(=O)N2CCNc3cnc(Nc4cccc(C(F)(F)F)c4)nc3C2)c1`: 24.3 µM [falling, partial curve].

Consider `COc1ccc(-n2nc(C3CCN(Cc4cccc5ccccc45)CC3)[nH]c2=O)cc1`, for which the CC50 is 27.3 µM [falling, single point].

On to `Cc1ccc(C(=O)N2CCC(Cc3nc(-c4ccccc4)no3)CC2)c(C)c1`, for which the cytotoxic concentration (CC50) was 9.68 µM [falling, partial curve]. As for `COc1ccc(CCC(=O)N2CCC[C@H]2c2nc(-c3ccccc3Cl)no2)cc1`, the figure is 43.2 µM [falling, single point]; as for `COc1ccc(C2Cn3nnc(C(=O)N4CCN(C(=O)c5cc(C)ccc5C)CC4)c3CO2)cc1` (stereo unspecified), 19.3 µM [falling, partial curve]. As for `COc1cccc(C(=O)N2CCCN(c3cc(-c4ccc(Cl)cc4)[nH]n3)CC2)c1OC`, the figure is 13.7 µM [falling, partial curve]. For the molecule `COC(=O)c1cccc(NC(=S)N[C@@H]2C=C[C@@H](c3c(C)nn(-c4ccc(F)cc4)c3C)C2)c1`, the half-maximal cytotoxic concentration (CC50) is 24.3 µM [falling, partial curve]. As for `CCOc1ccc(CC(=O)N2CCC(Cc3nc(-c4ccc(OC)cc4)no3)CC2)cc1`, the figure is 4.32 µM [falling, full curve].

In the case of `COc1ccccc1Nc1ncc2c(n1)CN(C(=O)c1ccccc1)CCN2`, the CC50 is 35.3 µM [falling, partial curve].

On to `CCNc1cc(N2CCC(CCC(=O)N3CCCN(c4ncccn4)CC3)CC2)ncn1`, for which the half-maximal cytotoxic concentration (CC50) was 19.3 µM [falling, partial curve].

Consider `O=C(Cc1ccc2c(c1)OCO2)N1CCNc2cnc(Nc3cccc(F)c3)nc2C1`, for which the CC50 was 31.4 µM [falling, partial curve].

As usually defined, the CC50 is the concentration at which the toxic effect on the cells reaches its halfway point.

The values above are taken from PubChem BioAssay AID1347044 (National Center for Advancing Translational Sciences (NCATS), 2019).
